Positions count from the first letter of the chain named. No constants are given. Whether binding was seen depends on the method and setting. In cells and extracts the contact can be indirect. Some binding calls cover weakened binding; strength is not graded here. Tags and fused reporters may be left off the sequences shown.
Legend:
[1] = target: T1, HA-tagged RGS6 (regulator of G-protein signaling 6), full length (human) (UniProt P49758); assay: co-IP; A549 cells co-transfected with HA-tagged RGS6 and Flag-tagged SMAD3, with or without TGF-β (5 ng/ml) for 1 hour; immunoprecipitation with anti-HA antibody, blots for the indicated proteins
T1 sequence: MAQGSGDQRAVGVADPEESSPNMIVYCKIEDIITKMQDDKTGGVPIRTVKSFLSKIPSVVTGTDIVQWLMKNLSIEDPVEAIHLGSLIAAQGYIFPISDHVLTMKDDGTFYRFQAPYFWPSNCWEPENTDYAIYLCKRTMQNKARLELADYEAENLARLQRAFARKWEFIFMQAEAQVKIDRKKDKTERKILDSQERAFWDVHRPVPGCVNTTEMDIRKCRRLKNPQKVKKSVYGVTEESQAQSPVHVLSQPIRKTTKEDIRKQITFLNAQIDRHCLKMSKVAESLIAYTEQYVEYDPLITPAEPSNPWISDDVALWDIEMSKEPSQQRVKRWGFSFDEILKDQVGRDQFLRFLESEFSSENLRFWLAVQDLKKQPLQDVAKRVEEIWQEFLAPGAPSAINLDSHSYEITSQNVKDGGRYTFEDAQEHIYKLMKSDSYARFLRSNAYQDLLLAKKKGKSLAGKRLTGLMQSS

Protein sequences, listed by entry. Tags and fused reporters are not part of them.
UniProt P84022: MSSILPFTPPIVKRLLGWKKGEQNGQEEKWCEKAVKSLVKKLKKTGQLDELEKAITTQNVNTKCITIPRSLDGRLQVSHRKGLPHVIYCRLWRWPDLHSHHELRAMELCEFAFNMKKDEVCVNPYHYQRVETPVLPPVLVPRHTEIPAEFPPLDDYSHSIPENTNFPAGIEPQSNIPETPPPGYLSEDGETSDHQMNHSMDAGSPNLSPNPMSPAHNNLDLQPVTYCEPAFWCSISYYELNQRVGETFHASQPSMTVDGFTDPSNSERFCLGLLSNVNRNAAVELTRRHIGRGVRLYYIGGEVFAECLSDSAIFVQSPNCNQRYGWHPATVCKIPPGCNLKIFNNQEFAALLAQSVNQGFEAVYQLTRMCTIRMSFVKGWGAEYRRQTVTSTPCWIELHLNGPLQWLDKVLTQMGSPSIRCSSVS
UniProt Q13485: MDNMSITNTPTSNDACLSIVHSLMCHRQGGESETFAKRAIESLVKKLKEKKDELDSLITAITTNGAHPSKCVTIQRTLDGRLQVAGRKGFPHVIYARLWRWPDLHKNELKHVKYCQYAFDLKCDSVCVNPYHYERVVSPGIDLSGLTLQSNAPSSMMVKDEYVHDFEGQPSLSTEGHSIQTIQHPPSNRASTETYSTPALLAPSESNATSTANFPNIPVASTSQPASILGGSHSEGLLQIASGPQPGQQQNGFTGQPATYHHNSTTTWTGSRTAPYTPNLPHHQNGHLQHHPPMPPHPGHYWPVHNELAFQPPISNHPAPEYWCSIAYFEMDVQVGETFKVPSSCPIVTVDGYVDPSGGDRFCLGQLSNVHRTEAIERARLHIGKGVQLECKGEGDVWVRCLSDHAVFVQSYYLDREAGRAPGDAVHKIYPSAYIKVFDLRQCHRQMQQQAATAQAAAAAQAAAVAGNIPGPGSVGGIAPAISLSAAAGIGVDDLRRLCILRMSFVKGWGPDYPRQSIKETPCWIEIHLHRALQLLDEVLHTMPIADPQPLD
UniProt Q15796: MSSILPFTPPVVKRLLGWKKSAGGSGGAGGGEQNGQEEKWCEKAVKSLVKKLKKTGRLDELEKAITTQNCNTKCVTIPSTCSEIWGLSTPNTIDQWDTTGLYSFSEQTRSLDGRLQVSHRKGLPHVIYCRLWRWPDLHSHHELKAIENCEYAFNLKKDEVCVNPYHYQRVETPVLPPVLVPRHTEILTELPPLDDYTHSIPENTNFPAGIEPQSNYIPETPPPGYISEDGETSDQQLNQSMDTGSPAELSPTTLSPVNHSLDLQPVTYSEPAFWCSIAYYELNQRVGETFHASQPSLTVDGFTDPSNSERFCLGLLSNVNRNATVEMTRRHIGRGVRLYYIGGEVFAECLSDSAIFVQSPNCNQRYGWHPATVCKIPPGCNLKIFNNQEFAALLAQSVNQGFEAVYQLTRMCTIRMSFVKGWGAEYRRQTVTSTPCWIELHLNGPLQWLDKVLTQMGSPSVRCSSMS

[2] = target: T1, HA-tagged RGS6 (regulator of G-protein signaling 6), full length (human); assay: co-IP; 293T cells co-transfected with Flag-tagged SMAD4 and various HA-tagged RGS6 mutants; IP of lysates with anti-HA antibody
[3] = target: T2, HA-tagged RGS6(N401V), a GAP activity-deficient mutant (human) (UniProt P49758); assay: as above
T2 sequence: T1 sequence with N401V

binding [1]	binding [2]	binding [3]	Substance
no binding	–	–	Flag-tagged SMAD3 (from UniProt P84022 1-425)
–	binds	binds	Flag-tagged SMAD4 (from UniProt Q13485 1-552)
binds	–	–	SMAD4 in A549 cells (from UniProt Q13485 1-552)
no binding	–	–	SMAD2 in A549 cells (from UniProt Q15796 1-467)

Reference: PMC9334288
